Laboratory results from PubChem BioAssay AID485344 (National Center for Advancing Translational Sciences (NCATS), 2010).
About 6,900 (2%) of roughly 340,000 compounds were called active. No stated cut-off is given here; in the data, active means inhibition above about 30%; inactive means below that, where a call was filed. This is a selection; strong and weak results do not stand in their true shares. The source gives no active or inactive call for entries shown without one.

Molecular target: D(2) dopamine receptor (Homo sapiens) (UniProt P14416)
Chain of UniProt P14416 (P14416 whole entry, looked up): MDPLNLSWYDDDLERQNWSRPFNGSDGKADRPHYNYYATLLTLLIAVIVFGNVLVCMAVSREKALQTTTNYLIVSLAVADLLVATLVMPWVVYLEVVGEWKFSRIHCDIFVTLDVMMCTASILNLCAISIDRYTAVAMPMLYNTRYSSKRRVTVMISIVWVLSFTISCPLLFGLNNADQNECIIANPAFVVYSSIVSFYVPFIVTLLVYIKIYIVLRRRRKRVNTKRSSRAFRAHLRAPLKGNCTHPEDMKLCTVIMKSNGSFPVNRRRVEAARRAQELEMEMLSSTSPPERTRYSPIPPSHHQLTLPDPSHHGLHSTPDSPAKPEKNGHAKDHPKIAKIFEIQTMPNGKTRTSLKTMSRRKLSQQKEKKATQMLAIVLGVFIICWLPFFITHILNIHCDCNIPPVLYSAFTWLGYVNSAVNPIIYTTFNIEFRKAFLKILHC
Experiment: HTS Assay for Allosteric Antagonists of the Human D2 Dopamine Receptor: Primary Screen for Antagonists; further: 0% is about no effect
Settings: HEK293 TREx D2 cells, calcium flux, dopamine EC80; at 10 µM; stronger effect = higher value
In short: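 Tetracycline-induced HEK293 T-REx cells expressing D2 force-coupled to calcium signalling were dye-loaded, exposed to compound for 180 s, then challenged with an EC80 of dopamine; calcium flux was followed kinetically for a further 180 s.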

Row | Structure (SMILES) | inhibition
1 | CCC1CN(C(=O)N2CCC(C(=O)NCCc3ccc(OC)c(OC)c3)CC2)c2ccccc2O1 (stereo not drawn) | -12.3%
2 | Cc1ccc(C)c(N2CCN(C(=O)C3CCC(CNS(=O)(=O)c4cccs4)CC3)CC2)c1 (stereo not drawn) | -6.68%
3 | Cc1ccc(CNC(=O)CSc2c(C)cnc3c2c(=O)n(C)c(=O)n3C)cc1 | -26.4%
4 | COc1cccc(/C=N/NC(=O)CNC(=O)/C=C\c2ccccc2)c1O | active: 53.8%
5 | CC(=O)Nc1nonc1-c1nnc(SCC(=O)Nc2cc(C)cc(C)c2)n1-c1ccccc1 | -0.562%
6 | CCN(CC)CCN(C(=O)c1ccco1)c1nc2ccc(Br)cc2s1 | 27.8%
7 | CCCOc1ccc(-c2nc(SC)[nH]c(=O)c2C#N)cc1OC | 0.505%
8 | COc1ccccc1OCc1ccc(C(=O)NN)o1 | active: 76.5%
9 | O=C(c1ccc2c(c1)N(Cc1ccccc1)C(=O)c1ccccc1S2(=O)=O)N1CCCCCC1 | -7.48%
10 | Cc1ccc(S(=O)(=O)c2c(Nc3cc(F)ccc3F)sc(C(=O)c3ccc(F)cc3)c2N)cc1 | 2.68%
11 | CCCCN(C)CCCNC(=O)c1ccc2c(c1)N(CC)C(=O)c1ccccc1S2=O (stereo not drawn) | active: 69.8%
12 | CCCN(CCC)CCCNC(=O)Cn1ncc2c3ccccc3n(Cc3ccccc3)c2c1=O | -7.12%
13 | Cc1ccc(C(=O)Nc2ccc(OCc3cc(=O)n4c(C)csc4n3)cc2)cc1 | 15.8%
14 | Cc1ccc(Nc2c(-c3ccc(O)cc3)nc3cccc(C)n23)cc1 | -0.986%
15 | Cc1cccc(NC(=O)CSc2nncn2C)c1 | -9.33%
16 | Cc1nc(-c2ccc(Cl)cc2)sc1CCNC(=O)c1cccs1 | 11.3%
17 | CCc1nn(C(CC)C(=O)NCc2ccc(F)cc2)c(=O)c2cc3occc3n12 (stereo not drawn) | 12.6%
18 | COc1cc(C(=O)NCC(c2ccco2)S(=O)(=O)c2ccccc2)cc(OC)c1OC (stereo not drawn) | -2.8%
19 | CCCOc1ccc(C(=O)N(Cc2ccc(N(C)C)cc2)CC2CCCO2)cc1 (stereo not drawn) | -0.053%
20 | CC1=C(C(=O)Nc2ccccc2)C(CC(C)C)n2nc(SCc3ccccc3C)nc2N1 (stereo not drawn) | -4.24%
21 | O=C(c1cc2c(s1)-c1ccccc1OC2)N1CCN(c2ccccc2)CC1 | -3.26%
22 | Cc1cc(C)cc(NC(=O)C2CCCN(C(=O)c3cnn(-c4ccccc4)c3-n3cccc3)C2)c1 (stereo not drawn) | -0.143%
23 | O=C(CSc1nc2c([nH]c3ccccc32)c(=O)n1-c1ccc(Cl)cc1)N1CCOCC1 | 2.78%
24 | O=C(c1ccc2nc(N3CCOCC3)sc2c1)N1CCC(Cc2ccccc2)CC1 | active: 31.8%
25 | CCC1CCCCN1CC(=O)Nc1cc(C)c2c(=O)oc3ccccc3c2n1 (stereo not drawn) | 0.752%

Row | Structure (SMILES) | inhibition
26 | Cc1ccc(-c2nonc2NC(=O)c2ccc(F)cc2)cc1C | -12.6%
27 | Cc1ccc(NC(=O)N2CCC(c3ccccc3)C2)cc1C (stereo not drawn) | 2.18%
28 | Cc1cccc(NC(=O)CSc2c(C)cnc3c2c(=O)n(C)c(=O)n3C)c1C | 0.487%
29 | O=C(CN1CCCN(Cc2ccccc2Cl)S1(=O)=O)NCc1ccccc1 | 0.407%
30 | Cc1cccn2c(=O)cc(COc3cccc(NC(=O)COc4ccc(F)cc4)c3)nc12 | -3.75%
31 | COc1ccccc1CN1C[C@@H]2C[C@@H](C3=Cc4cc(Cl)ccc4OC3)N3CCC[C@@]23C1=O | active: 30.6%
32 | CC(NC(=O)c1ccccc1Cl)c1nnc(SCC(=O)Nc2ccc(C(=O)O)cc2)n1C (stereo not drawn) | active: 30.5%
33 | CCc1nnc(NC(=O)C(=O)c2cc(C)n(-c3ccccc3)c2C)s1 | -19.2%
34 | CC(C)N(Cc1ccccc1)C(=O)Cn1ncc2c([nH]c3ccccc32)c1=O | 5.82%
35 | O=C(Cn1ccc2cc(S(=O)(=O)N3CCCCC3)ccc21)NCc1cccc(Cl)c1 | -10.2%
36 | CC1CCC(NC(=O)c2cc3c(Cl)nc4ccccc4c3s2)CC1 (stereo not drawn) | -2.63%
37 | COc1ccc(F)cc1S(=O)(=O)Nc1cccc(-c2ccc(N3CCCCCC3)nn2)c1 | 11%
38 | COc1ccc(NC(=O)CSc2ccccn2)c([N+](=O)[O-])c1 | active: 31.3%
39 | CCOc1ccccc1NC(=O)Cn1c(=O)n(Cc2ccccc2)c(=O)c2cccnc21 | -3.14%
40 | CCOC(=O)C(C)NC(=O)C1CCN(c2ncnc3c2nc2n3CCCCC2)CC1 (stereo not drawn) | -15.6%
41 | C=C(C)Cn1c(SCC(=O)O)nnc1-c1ccc(C(C)(C)C)cc1 | active: 30.2%
42 | Cc1cc(C)c(NC(=O)Cn2nnc(-c3ccccc3)n2)c(C)c1 | -4.57%
43 | Cc1cc(S(=O)(=O)NCC(c2ccco2)S(=O)(=O)c2ccccc2)ccc1F (stereo not drawn) | 6.5%
44 | Cc1ccc(OC(=O)CSc2nnc(-c3cccs3)o2)cc1 | 17.2%
45 | CNC(=O)c1c(NC(=O)/C=C/c2ccccc2Cl)sc2c1CCC2 | -0.68%
46 | Cc1ccccc1C(=O)N(Cc1nc(-c2ccc(Cl)cc2)no1)C(C)C | -7.68%
47 | CCn1c(=O)c2sccc2n2c(CCC(=O)N3CCN(c4ccc(C(C)=O)cc4)CC3)nnc12 | 2.43%
48 | CC(NC(=O)CN(c1ccc(Cl)cc1Cl)S(=O)(=O)c1ccccc1)c1ccccc1 (stereo not drawn) | 7.05%
49 | O=C(Cn1c(-c2cccs2)cc2cc(Cl)ccc21)N1CCN(c2ccccc2F)CC1 | 0.251%
50 | COc1ccc(C(=O)c2oc3ccccc3c2NC(=O)COc2cccc(C)c2C)cc1 | -17.8%

Row | Structure (SMILES) | inhibition
51 | COc1ccc(NC(=O)C(Cc2ccccc2)n2cccc2)cc1OC (stereo not drawn) | -0.0545%
52 | COc1cc(-c2noc(CCC(=O)Nc3cc(C)ccc3C)n2)cc(OC)c1OC | 0.781%
53 | COc1ccc(OC)c(-n2nnnc2SCC(=O)Nc2ccccc2OC)c1 | active: 31.1%
54 | Cc1ccccc1Cn1c2ccccc2c2cnn(CC(=O)NCCc3ccccc3)c(=O)c21 | 14.8%
55 | COc1ccc(NC(=O)CCS(=O)(=O)c2ccc3nc(C)sc3c2)cc1Cl | 7.6%
56 | Cc1ccc(-n2ncc(C(=O)NCCc3c[nH]c4ccccc34)c2C2CCN(C(=O)OC(C)(C)C)CC2)cc1C | 13.4%
57 | CCn1c(=O)c([N+](=O)[O-])c(NCCN(C)C)c2ccccc21 | active: 59.2%
58 | COc1ccc(CNC(=O)CN2C(=O)CSc3ccc(S(=O)(=O)N4CCOCC4)cc32)c(OC)c1 | -0.151%
59 | COc1cccc(CNC(=O)c2cc(S(=O)(=O)N3CCCCC3)cn2C)c1 | 21.8%
60 | CC(=O)Nc1ccc(NC(=O)CSc2nc3ccccc3nc2N2CCC(C)CC2)cc1 | -3.79%
61 | COc1ccc(OC(=O)c2nc(SCc3ccc(F)cc3)ncc2Cl)cc1 | -5.79%
62 | O=c1c(S(=O)(=O)c2ccccc2)cn(Cc2cccc(F)c2)c2cc(N3CCOCC3)c(F)cc12 | 1.28%
63 | CCOc1ccc(NC(=O)c2cnn3c2NC(c2cccc(OC)c2)=CC3c2ccccc2)cc1 (stereo not drawn) | -2.71%
64 | COc1cccc(-c2nnc(-c3ccccc3NC(=O)c3cccc(C(F)(F)F)c3)o2)c1 | -7.93%
65 | CCOC(=O)c1cc(OC(=O)c2ccc(C)cc2)n(-c2ccccc2)n1 | -5.32%
66 | Cc1ccc(C(=O)Nc2nnc(S(=O)(=O)N3c4ccccc4CC3C)s2)cc1 (stereo not drawn) | -4.01%
67 | COc1ccc(NC(=O)c2ccco2)cc1NC(=O)COc1ccccc1 | 9.62%
68 | CCc1ccc(S(=O)(=O)c2cn(C)c3cc(N4CCC(C)CC4)c(F)cc3c2=O)cc1 | 0.71%
69 | CCOC(=O)c1ccc(NC(=O)c2c(NCc3cccs3)sc3c2CCCC3)cc1 | 6.81%
70 | Cn1c(=O)n(C)c2cc(N3CCOCC3)c(NC(=O)c3ccccc3Br)cc21 | 6.38%
71 | Cn1c(=O)c(=O)n(C)c2cc(S(=O)(=O)CCC(=O)Nc3ccc(F)cc3)ccc21 | 19.6%
72 | CCOc1ccccc1C(=O)Nc1c(C(=O)Nc2ccc(F)cc2)oc2ccccc12 | -0.177%
73 | CCOc1ccc(C2Nc3c(C)cccc3-c3cc(C)nn32)cc1 (stereo not drawn) | -3.34%
74 | Cc1oc2ncnc(N3CCOCC3)c2c1C(=O)N(Cc1ccccc1)C(C)C | 6.92%
75 | COc1ccc(S(=O)(=O)NCC(c2ccco2)S(=O)(=O)c2cccs2)cc1C (stereo not drawn) | 4.01%

Row | Structure (SMILES) | inhibition
76 | Cc1c(C(=O)N2CCCCCC2)c(S(=O)(=O)NCc2ccc(Br)cc2)c(C)n1C | 3.99%
77 | COc1ccc(/C=N/NC(=O)COc2ccccc2-c2ccccc2)cc1 | active: 39.5%
78 | Cc1ccc(-c2nc3ccccn3c2Nc2ccccc2C)s1 | -12.3%
79 | CCOc1ccc(CNC(=O)c2ccc3nc(C(C)C)oc3c2)cc1 | 15.2%
80 | COC(=O)c1ccc(NC(=O)NCCn2nnc3cc(S(=O)(=O)N(C)C)ccc32)cc1 | -7.85%
81 | COc1ccc(Nc2cc(C(=O)NC3CCC(C)CC3)c3ccccc3n2)cc1OC (stereo not drawn) | -12.2%
82 | CCCOc1ccc(CNC(=O)Cn2ncn3c(cc4sc(CC)cc43)c2=O)cc1 | 1.71%
83 | CC(C)c1ccc(C(=O)Nc2cc(-c3ccccc3F)nn2-c2ccccc2)cc1 | -13.6%
84 | Cc1ccc(-c2nnn3c2nc(NCCc2ccc(Cl)cc2)c2ccccc23)cc1 | 4.08%
85 | O=C(NCc1ccc(F)cc1)c1ccc2c(O)c(S(=O)(=O)c3ccccc3)c(=O)[nH]c2c1 | 18.1%
86 | CCCCn1c(NCc2ccc(OC)cc2O)nc2ccccc21 | 3.93%
87 | COc1ccc(C)cc1-n1nnc(-c2nc(-c3ccccc3Cl)no2)c1N | 10.9%
88 | Cc1ccccc1NS(=O)(=O)c1ccc2[nH]cc(C(=O)N3CCCCC3)c(=O)c2c1 | 14.6%
89 | CCCCn1nc(NC(=O)c2cccc(Cl)c2)c2cc3ccccc3nc21 | -8.5%
90 | O=C(NCc1ccccc1)c1ccc(CSc2nc3cccnc3n2Cc2cccc(F)c2)cc1 | -16.8%
91 | CCCc1nc2ccccc2n2c(-c3ccccc3)c3c(=O)n(C)c(=O)n(C)c3c12 | 7.34%
92 | Cc1ccccc1CN1C(=O)c2ccccc2Sc2ccc(C(=O)N3CCCC3)cc21 | 4.52%
93 | CCOc1ccc(CNCc2c(C(=O)O)n(Cc3ccc(C)cc3)c3cc(C)ccc23)cc1 | 9.97%
94 | Cc1c(Cl)cccc1NC(=O)CN(CCc1ccccc1)S(=O)(=O)c1ccccc1 | 1.46%
95 | Cc1ccccc1Nc1ncnc2c1cnn2C | -26.9%
96 | CCCCN(CC)CCNC(=O)c1cc2c(=O)[nH]c3ccccc3c2n1C | -4.79%
97 | Cc1ccccc1OCC(=O)Nc1ccc(-c2nc3ncccc3o2)cc1 | 2.55%
98 | Cc1cccc(C(=O)N2CCc3cc(CNS(=O)(=O)c4ccc(Cl)s4)ccc32)c1 | 5.09%
